Assay results: the supplement of paper PMC6089552
The whole screen tested about 3,200 compounds, of which about 300 (9.4%) showed activity. The entries are a selection whose mix differs from that of the whole data set.

Test system: A673/TR/shEF
Assay: cell viability (LOESS-normalised, relative to median of negative controls) (log2 ratio); higher = more viable cells (less compound effect), active = hit call of the paper (over 3 MAD below the median)
Details: treatment time: 72 h
In short: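 For three days, A673/TR/shEF Ewing sarcoma cells in 384-well plates (1,500 per well) were treated with library compounds at two or more concentrations or with DMSO controls, after doxycycline had been added or withheld 24 h beforehand to induce EWS-FLI1 shRNA knockdown. Viability was read by CellTiter-Glo luminescence on an Envision reader. The data were LOESS-corrected per plate, divided by the median of negative controls and log2-transformed.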

[1] = 0.25 µM, library screen: screen1, EWS-FLI1 expression: high (no doxycycline)
[2] = 0.25 µM, library screen: screen1, EWS-FLI1 expression: low (doxycycline-induced shRNA knockdown)
[3] = 2.5 µM, library screen: screen1, EWS-FLI1 expression: high (no doxycycline)
[4] = 2.5 µM, library screen: screen1, EWS-FLI1 expression: low (doxycycline-induced shRNA knockdown)
[5] = 0.25 µM, library screen: screen2, EWS-FLI1 expression: high (no doxycycline)
[6] = 0.25 µM, library screen: screen2, EWS-FLI1 expression: low (doxycycline-induced shRNA knockdown)
[7] = 2.5 µM, library screen: screen2, EWS-FLI1 expression: high (no doxycycline)
[8] = 2.5 µM, library screen: screen2, EWS-FLI1 expression: low (doxycycline-induced shRNA knockdown)

COc1cc2c(cc1O)C[C@H]1c3c(cc(O)c(OC)c3-2)CCN1C
cell viability (log2) [1]: inactive: 0.0548 | cell viability (log2) [2]: inactive: 0.0293 | cell viability (log2) [3]: inactive: 0.166 | cell viability (log2) [4]: inactive: 0.173

CCOC(=O)NC1=C(N2CC2)C(=O)C(NC(=O)OCC)=C(N2CC2)C1=O
cell viability (log2) (0.025 µM, library screen: screen2, EWS-FLI1 expression: high (no doxycycline)): inactive: -0.0137 | cell viability (log2) (0.025 µM, library screen: screen2, EWS-FLI1 expression: low (doxycycline-induced shRNA knockdown)): inactive: -0.0126 | cell viability (log2) [1]: inactive: 0.102 | cell viability (log2) [2]: inactive: 0.0213 | cell viability (log2) [5]: inactive: 0.153 | cell viability (log2) [6]: inactive: -0.00616 | cell viability (log2) [3]: inactive: 0.0672 | cell viability (log2) [4]: inactive: 0.107 | cell viability (log2) [7]: inactive: -0.0475 | cell viability (log2) [8]: inactive: 0.0995 | cell viability (log2) (25 µM, library screen: screen2, EWS-FLI1 expression: high (no doxycycline)): active: -3.5 | cell viability (log2) (25 µM, library screen: screen2, EWS-FLI1 expression: low (doxycycline-induced shRNA knockdown)): active: -0.288

CC(O)C(C)OC(=O)[C@@H]1C[C@@H]2c3cccc4c3c(cn4C(C)C)C[C@H]2N(C)C1 (stereo not given in full)
cell viability (log2) [5]: inactive: 0.174 | cell viability (log2) [6]: inactive: 0.171 | cell viability (log2) [7]: inactive: 0.12 | cell viability (log2) [8]: inactive: 0.112

c1ccc2sc(C3(N4CCCCC4)CCCCC3)cc2c1
cell viability (log2) [5]: inactive: 0.21 | cell viability (log2) [6]: inactive: 0.0848 | cell viability (log2) [7]: inactive: 0.113 | cell viability (log2) [8]: inactive: 0.152

C[N+]1(C)C2CCC1CC(OC(=O)c1c[nH]c3ccccc13)C2 (stereo not given)
cell viability (log2) [5]: inactive: 0.0789 | cell viability (log2) [6]: inactive: 0.116 | cell viability (log2) [7]: inactive: 0.126 | cell viability (log2) [8]: inactive: 0.165

Clc1ccc(C(c2ccc(Cl)cc2)C(Cl)(Cl)Cl)cc1
cell viability (log2) [1]: inactive: 0.0479 | cell viability (log2) [2]: inactive: 0.0234 | cell viability (log2) [3]: inactive: 0.0726 | cell viability (log2) [4]: inactive: 0.147

C[N+]1(C)CCCC(OC(=O)C(O)(c2ccccc2)c2ccccc2)C1 (stereo not given)
cell viability (log2) [1]: inactive: 0.0362 | cell viability (log2) [2]: inactive: 0.021 | cell viability (log2) [3]: inactive: 0.103 | cell viability (log2) [4]: inactive: 0.00347

NC1CCc2cc(O)c(O)cc2C1 (stereo not given)
cell viability (log2) [5]: inactive: 0.279 | cell viability (log2) [6]: inactive: 0.127 | cell viability (log2) [7]: inactive: 0.204 | cell viability (log2) [8]: inactive: 0.136

C[C@]12CCC(=O)C=C1CC[C@@H]1[C@@H]2CC[C@]2(C)C(=O)CC[C@@H]12
cell viability (log2) [5]: inactive: 0.112 | cell viability (log2) [6]: inactive: 0.107 | cell viability (log2) [7]: inactive: 0.0682 | cell viability (log2) [8]: inactive: 0.136

COc1cccc(CN2CCN(Cc3ccccc3OC)CC2)c1
cell viability (log2) [1]: inactive: 0.108 | cell viability (log2) [2]: inactive: 0.0202 | cell viability (log2) [3]: inactive: 0.149 | cell viability (log2) [4]: inactive: -0.0141

C=CCN1CC[C@@]2(C)c3cc(O)ccc3CC1[C@@H]2C
cell viability (log2) [5]: inactive: 0.194 | cell viability (log2) [6]: inactive: 0.135 | cell viability (log2) [7]: inactive: 0.028 | cell viability (log2) [8]: inactive: 0.047

CCCC[N+]1(C)C2CC(OC(=O)C(CO)c3ccccc3)CC1C1OC12 (stereo not given)
cell viability (log2) [5]: inactive: 0.152 | cell viability (log2) [6]: inactive: 0.0245 | cell viability (log2) [7]: inactive: 0.152 | cell viability (log2) [8]: inactive: 0.054

Oc1ccc(Cl)cc1Cc1cc(Cl)ccc1O
cell viability (log2) [1]: inactive: 0.0717 | cell viability (log2) [2]: inactive: 0.203 | cell viability (log2) [3]: inactive: 0.162 | cell viability (log2) [4]: inactive: 0.181
